# Results: PMC12040169 (PLOS Biology, 2025)
# Some of the results follow.
# Test system: T1, C. trachomatis L2/434/Bu expressing GFP (CTL2-GFP)
# T1 construct: L2/434/Bu GFP intracellular growth in HeLa cells
# Parameters: species or system HeLa; C. trachomatis total inclusion area by high-content imaging, normalised to DMSO
# Conditions: total inclusion area; 28.5 h, 10 µM; inhibitor
# Summary of the method: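 Following bulk GFP and resorufin fluorescence reads, infected cells were fixed, Hoechst-stained and imaged on a high-content platform. Inclusion total area and number per well served as growth proxies; nuclei counts indicated host viability. MICs were derived as for the fluorescence assay.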
row,Compound,% of control remaining
1,CCN1CCCC1CN(Cc1cccs1)CC1CCOC1 (stereo not shown) [CBK282602],94.3019
2,CCCN(C(=O)OC(C)(C)C)C1CCc2[nH]c(=O)c(C#N)cc2C1 (stereo not shown) [CBK023470],59.5674
3,OCc1cccc(-c2cncc(NCCc3cccnc3)n2)c1 [CBK037946],129.428
4,COc1ncccc1C(=O)N1Cc2ccccc2C1 [CBK200324],81.4333
5,Cc1sc2ncn(CCC(=O)O)c(=O)c2c1C [CBK288191],99.847
6,CC(C)c1cccc(C(C)C)c1OCCNCCO [CBK262750],94.9852
7,O=C(C1=C(O)C(=O)N(CCCn2ccnc2)C1c1cccc([N+](=O)[O-])c1)c1cccs1 (stereo not shown) [CBK264591],116.28
8,Cc1c(C(=O)N2CCn3c(C)nnc3C2)sc2cccc(F)c12 [CBK304923],49.6644
9,COc1cc(-c2cn3ccnc3c(N3CCN(c4ccncc4)CC3)n2)cc(OC)c1OC [CBK037896],93.1051
10,CC(=O)Nc1ccc(/C(C)=N\NC(=O)CCN2CCCCC2)cc1 [CBK263509],115.952
11,Nc1ncc(-c2ccc(C(F)(F)F)cc2)c(C2CCCN(C(=O)c3ccccc3)C2)n1 (stereo not shown) [CBK285790],67.4839
12,NC(=O)CN1CCC(Cc2ccccc2)CC1 [CBK138319],87.2888
13,CCNC(=O)N1CC2(CCN(CCn3cccc3)CC2)c2ccccc21 [CBK143945],96.5094
14,N#Cc1ccc(COc2cccc(Cl)c2Cl)cc1 [CBK002611],134.203
15,CN1CCN(Cc2c(O)ccc3occ(C(=O)c4ccccc4)c23)CC1 [CBK111438],85.9715
16,CCC(C)(C)c1ccc(S(=O)(=O)NCC2CC2)cc1 [CBK044994],98.8836
17,O=C(c1ccno1)N1CCC(Cc2ccccc2)CC1 [CBK200185],97.6011
18,O=C(/C=C/c1ccccc1)Oc1cccc(NC(=O)C2CC(=O)N(c3ccccc3)C2)c1 (stereo not shown) [CBK264330],92.2958
19,Cc1nc(C(F)(F)F)ccc1C(=O)NCC(C)(C)N1CCCCC1 [CBK281864],126.356
20,COc1ccc(C2Nc3ccccc3C(=O)N2c2ccc(C)cc2)cc1Cn1nc(C)c([N+](=O)[O-])c1C (stereo not shown) [CBK263703],70.3692
21,CCCCOC(=O)CCNc1n[nH]c(=O)[nH]c1=O [CBK027838],91.2472
22,CC(C)Nc1cncc(OCCCc2ccncc2)n1 [CBK115881],88.4044
23,CCN1CCCCC1CNC(=O)c1sc(C)nc1C (stereo not shown) [CBK282206],83.9314
24,Cc1cc2c(cc1C)N(C(=O)CSc1ncn[nH]1)C(C)(C)c1ssc(=S)c1-2 [CBK263786],110.983
25,Cc1cc(C)nc(N2CCC(CC(=O)NCCCc3ccc(F)cc3)CC2)n1 [CBK285995],118.198
26,O=C(c1cncc(-c2[nH]nnc2-c2ccccc2)c1)N1CCCC1 [CBK160360],97.0484

row,Compound,% of control remaining
1,O=C(Nc1nc(-c2cccc([N+](=O)[O-])c2)cs1)c1ccc(S(=O)(=O)N2CCCC2)cc1 [CBK102813],82.2884
2,CO[C@H]1CN(C)C[C@@H]1NC(=O)c1cccc2c1NCCC2 [CBK307107],111.615
3,CN1CCC(C(=O)N2CCN(CCc3ccccc3)CC2)CC1 [CBK200216],98.2986
4,Cc1ccc(NC2CC(C)N(C(=O)c3cccc([N+](=O)[O-])c3)c3ccc(C)cc32)cc1 (stereo not shown) [CBK293929],98.976
5,Cc1c(NC(=O)Nc2ccccc2)sc(=S)n1C [CBK027434],72.3615
6,C(=C\c1nccnc1OCc1ccccn1)/c1ccccc1 [CBK106874],77.8676
7,FC(F)(F)c1cc(-c2cn3ccnc3c(Nc3ccc4[nH]ccc4c3)n2)cc(C(F)(F)F)c1 [CBK066356],80.5353
8,CCOc1ccc(S(=O)(=O)Nc2ccc(C(=O)O)c(O)c2)cc1 [CBK299837],85.7216
9,CC(C)CC(=O)N1C[C@H]2CCCN(Cc3ccccn3)[C@H]2C1 [CBK285269],114.316
10,COc1ccc(NC(=O)CSc2nnc(-c3ccncc3)n2-c2ccc(C)cc2)cc1Cl [CBK266187],122.042
11,COc1cncc(C(NC(=O)c2cc(=O)cc(C)o2)[C@H]2C[C@@H](O)C2)c1 (stereo partly shown) [CBK306833],56.0101
12,CCOCC1CN(c2cc(CO)c(F)cn2)CCO1 (stereo not shown) [CBK304756],33.5456
13,COc1cccc(N2C(=O)N[C@@H]3CCN(C(=O)c4cccs4)[C@@H]3C2=O)c1 [CBK289279],94.9636
14,CCCN(C(C)=O)c1nc(O)cc(C(F)(F)F)n1 [CBK000427],82.6276
15,O=C(NC1Cc2ccccc2C1)c1cscn1 [CBK200363],86.5014
16,CS(=O)(=O)c1ccc(CNC(=O)c2ccccc2Nc2cccc(C(F)(F)F)c2)cc1 [CBK149580],86.3339
17,COc1cccc(C(=O)N2CCN(C)C(=O)C2Cc2ccccc2-c2ccccc2)c1OC (stereo not shown) [CBK285828],113.33
18,CCCCc1ccc(NC(=S)NC(=O)c2ccc(OC)c(OC)c2)cc1 [CBK157691],83.6277
19,CN(C)c1ccc(-c2[nH][nH]c(=O)c2CCCN)cc1 [CBK288406],99.252
20,Cc1nc2sccn2c1-c1csc(Nc2cccc(C(=O)O)c2)n1 [CBK263291B],85.0082
21,COCCn1cc(C(=O)N2CCOC3CCCCC32)c2ccccc21 (stereo not shown) [CBK305288],14.6114
22,CSc1nc2ccc(Nc3cc(C)nc4ncnn34)cc2s1 [CBK297724],87.2796
23,COc1ccc(Cc2nc3ccccc3n2CCc2ccccc2)cc1 [CBK266385],95.2196
24,O=C(COCc1nc2ccccc2[nH]1)N1CCC(c2ccccc2)C1 (stereo not shown) [CBK281840],112.42
25,COc1ccc(C(=O)NC(NCc2ccco2)C(Cl)(Cl)Cl)cc1 (stereo not shown) [CBK262279],77.1544
26,NC1CCCN(C(=O)c2ccc(Oc3cccc(Br)c3)nc2)C1 (stereo not shown) [CBK304747],66.3672
